# Experimental data: the supplement of paper PMC8728848
# Some of the results follow.
# B1: PX15618A-bth-503-24-503 (Bacteroides thetaiotaomicron) (protein)
# chain: NKSEDKLSGDDFWAQGNETNAEAFLLSIYNSFRNATMSQRPFLTYSGDMRCAPITAYSTGDKYVAYLANNDMGELRNTYPDDARGGLIMQWDVFYTAIQDANILLAEIDKVPGMDELKRSRFKAEAIFMRSLSYFFIVRAFGDVPYYTNAYNEAPLPRTNMVIVLQNCLADLQPLLDDDPGAEVLPWSYSSYSSKGIRASRGSVIALMMHINLWLVQFDAQNKEQYYRNVVSLGEELERNNGAYSLLDINRSSVIFAGGSDEGLFEIAQNINFNEIFMMNAKFSDNVSYSCLNKSMPLFCYSGDYLMTLFPMYEDDARKELWFDEKIYSTSVSSSAPKEIKKFWNIDTYGNGTITSNSGNQIVFRYAGALLLYAEALAALGTNDTKACELLNRVRNRAHASEINTSGSELMDAIFWERCRELIGEGHYYYDLVRTGKVYNRNYCMNPMTRTNFNVGAWTWPIHRNALKNNTQIGLNLFWE
# What was measured:
# Assay in all cases: glycan array binding signal (z-score within array); higher = stronger binding
# Settings in all cases: glycan notation: IUPAC condensed, linker removed
# [1] = biological target: GlcNAc(b1-4)GlcNAc(b1-4)GlcNAc(b1-4)GlcNAc(b1-4)GlcNAc(b1-4)GlcNAc
# In short: (§1)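 Columns mapping to the same glycan were averaged after glycan names were converted to IUPAC-condensed notation. The data come from 3228 arrays in the Consortium for Functional Glycomics database, limited to those with an available protein sequence. Binding is reported as a within-array Z-score averaged across arrays of one protein sequence and across linkers.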
# [2] = biological target: GlcNAc(b1-4)[GlcNAc(b1-6)]GalNAc
# In short: as §1
# [3] = biological target: GlcNAc(b1-6)Gal(b1-4)GlcNAc
# In short: as §1
# GlcNAc(b1-6)GalNAc = biological target: GlcNAc(b1-6)GalNAc
# In short: as §1
# [4] = biological target: GlcNAc6S(b1-3)Gal(b1-4)GlcNAc
# In short: as §1
# Kdn(a2-3)Gal(b1-3)GalNAc = biological target: Kdn(a2-3)Gal(b1-3)GalNAc
# In short: as §1
# Kdn(a2-3)Gal(b1-3)GlcNAc = biological target: Kdn(a2-3)Gal(b1-3)GlcNAc
# In short: as §1
# Kdn(a2-3)Gal(b1-4)Glc = biological target: Kdn(a2-3)Gal(b1-4)Glc
# In short: as §1
# Kdn(a2-3)Gal(b1-4)GlcNAc = biological target: Kdn(a2-3)Gal(b1-4)GlcNAc
# In short: as §1
# [5] = biological target: Kdn(a2-3)Gal(b1-4)[Fuc(a1-3)]GlcNAc
# In short: as §1
# Kdn(a2-6)Gal(b1-4)GlcNAc = biological target: Kdn(a2-6)Gal(b1-4)GlcNAc
# In short: as §1
# [6] = biological target: Man(a1-2)Man(a1-2)Man(a1-3)Man
# In short: as §1
# [7] = biological target: Man(a1-2)Man(a1-2)Man(a1-6)[Man(a1-3)]Man
# In short: as §1
# Man(a1-2)Man(a1-3)Man = biological target: Man(a1-2)Man(a1-3)Man
# In short: as §1
# [8] = biological target: Man(a1-2)Man(a1-3)[Man(a1-2)Man(a1-6)]Man
# In short: as §1
# [9] = biological target: Man(a1-2)Man(a1-3)[Man(a1-2)Man(a1-6)]Man(a1-6)[Man(a1-2)Man(a1-2)Man(a1-3)]Man
# In short: as §1
# [10] = biological target: Man(a1-2)Man(a1-3)[Man(a1-2)Man(a1-6)]Man(a1-6)[Man(a1-2)Man(a1-2)Man(a1-3)]Man(b1-4)GlcNAc(b1-4)GlcNAc
# In short: as §1
# [11] = biological target: Man(a1-2)Man(a1-3)[Man(a1-6)]Man(a1-6)[Man(a1-2)Man(a1-3)]Man(b1-4)GlcNAc(b1-4)GlcNAc
# In short: as §1
# [12] = biological target: Man(a1-2)Man(a1-6)[Man(a1-3)]Man(a1-6)[Man(a1-2)Man(a1-2)Man(a1-3)]Man
# In short: as §1
# [13] = biological target: Man(a1-2)Man(a1-6)[Man(a1-3)]Man(a1-6)[Man(a1-2)Man(a1-2)Man(a1-3)]Man(b1-4)GlcNAc(b1-4)GlcNAc
# In short: as §1
# Man(a1-3)[Man(a1-6)]Man = biological target: Man(a1-3)[Man(a1-6)]Man
# In short: as §1
# [14] = biological target: Man(a1-3)[Man(a1-6)]Man(a1-6)[Man(a1-2)Man(a1-3)]Man(b1-4)GlcNAc(b1-4)GlcNAc
# In short: as §1
# [15] = biological target: Man(a1-3)[Man(a1-6)]Man(a1-6)[Man(a1-3)]Man
# In short: as §1
# [16] = biological target: Man(a1-3)[Man(a1-6)]Man(a1-6)[Man(a1-3)]Man(b1-4)GlcNAc(b1-4)GlcNAc
# In short: as §1
# [17] = biological target: Man(a1-3)[Man(a1-6)]Man(b1-4)GlcNAc(b1-4)GlcNAc
# In short: as §1
# [18] = biological target: Man(a1-3)[Man(a1-6)]Man(b1-4)GlcNAc(b1-4)[Fuc(a1-6)]GlcNAc
# In short: as §1
# Man(a1-6)Man = biological target: Man(a1-6)Man
# In short: as §1
# Man(b1-4)GlcNAc = biological target: Man(b1-4)GlcNAc
# In short: as §1
# MurNAc(b1-4)GlcNAc = biological target: MurNAc(b1-4)GlcNAc
# In short: as §1
# Neu5Ac(a2-3)Gal = biological target: Neu5Ac(a2-3)Gal
# In short: as §1
# [19] = biological target: Neu5Ac(a2-3)Gal(b1-3)GalNAc
# In short: as §1
# [20] = biological target: Neu5Ac(a2-3)Gal(b1-3)GalNAc(b1-3)Gal(a1-4)Gal(b1-4)Glc
# In short: as §1
# [21] = biological target: Neu5Ac(a2-3)Gal(b1-3)GalNAc(b1-4)[Neu5Ac(a2-3)]Gal(b1-4)Glc
# In short: as §1
# [22] = biological target: Neu5Ac(a2-3)Gal(b1-3)GalNAc(b1-4)[Neu5Ac(a2-8)Neu5Ac(a2-3)]Gal(b1-4)Glc
# In short: as §1
# [23] = biological target: Neu5Ac(a2-3)Gal(b1-3)GalNAc6S
# In short: as §1
# [24] = biological target: Neu5Ac(a2-3)Gal(b1-3)GlcNAc
# In short: as §1
# [25] = biological target: Neu5Ac(a2-3)Gal(b1-3)GlcNAc(b1-2)Man
# In short: as §1
binder,measurement,setting,value
B1,glycan array binding signal (z-score),[1],0.318
same,glycan array binding signal (z-score),[2],-0.498
same,glycan array binding signal (z-score),[3],-0.704
same,glycan array binding signal (z-score),GlcNAc(b1-6)GalNAc,-0.3
same,glycan array binding signal (z-score),[4],-0.37
same,glycan array binding signal (z-score),Kdn(a2-3)Gal(b1-3)GalNAc,0.228
same,glycan array binding signal (z-score),Kdn(a2-3)Gal(b1-3)GlcNAc,0.094
same,glycan array binding signal (z-score),Kdn(a2-3)Gal(b1-4)Glc,0.422
same,glycan array binding signal (z-score),Kdn(a2-3)Gal(b1-4)GlcNAc,0.017
same,glycan array binding signal (z-score),[5],-0.505
same,glycan array binding signal (z-score),Kdn(a2-6)Gal(b1-4)GlcNAc,0.229
same,glycan array binding signal (z-score),[6],-0.357
same,glycan array binding signal (z-score),[7],-0.171
same,glycan array binding signal (z-score),Man(a1-2)Man(a1-3)Man,-0.477
same,glycan array binding signal (z-score),[8],-0.505
same,glycan array binding signal (z-score),[9],-0.301
same,glycan array binding signal (z-score),[10],-1.01
same,glycan array binding signal (z-score),[11],-0.835
same,glycan array binding signal (z-score),[12],-0.076
same,glycan array binding signal (z-score),[13],0.419
same,glycan array binding signal (z-score),Man(a1-3)[Man(a1-6)]Man,0.002
same,glycan array binding signal (z-score),[14],-0.281
same,glycan array binding signal (z-score),[15],-0.384
same,glycan array binding signal (z-score),[16],0.524
same,glycan array binding signal (z-score),[17],-0.265
same,glycan array binding signal (z-score),[18],-0.042
same,glycan array binding signal (z-score),Man(a1-6)Man,-0.052
same,glycan array binding signal (z-score),Man(b1-4)GlcNAc,0.123
same,glycan array binding signal (z-score),MurNAc(b1-4)GlcNAc,0.506
same,glycan array binding signal (z-score),Neu5Ac(a2-3)Gal,-0.851
same,glycan array binding signal (z-score),[19],-0.436
same,glycan array binding signal (z-score),[20],-0.355
same,glycan array binding signal (z-score),[21],0.507
same,glycan array binding signal (z-score),[22],-0.27
same,glycan array binding signal (z-score),[23],-0.627
same,glycan array binding signal (z-score),[24],-0.396
same,glycan array binding signal (z-score),[25],-0.001
